Measured values as given in patent US9085531B2 (priority 2004, dated 2015).

Columns and labels:
[1] = target: human DA transporter (DAT) (Homo sapiens (Human), UniProt Q01959); settings: read-out: Ki, nM DAT; Table 2; inhibition of radioligand binding at the human transporter
[2] = target: human 5HT transporter (5HTT, SERT) (Homo sapiens (Human), UniProt P31645); settings: read-out: Ki, nM SERT; Table 2; inhibition of radioligand binding at the human transporter

Compound	Ki [1]	Ki [2]
CN1Cc2cc(-c3cccnn3)ccc2C(c2cc3ccccc3o2)C1 (racemic) [Example 117, (+/−)-4-benzofuran-2-yl-2-methyl-7-pyridazin-3-yl-1,2,3,4-tetrahydroisoquinoline]	41.3 nM	4.1 nM
COc1c(C2CN(C)Cc3cc(-c4ccc(C)nn4)ccc32)ccc2sccc12 (single isomer, unassigned; (+)) [Example 84, (+)-4-(4-Methoxy-benzothiophen-5-yl)-2-methyl-7-(6-methyl-pyridazin-3-yl)-1,2,3,4-tetrahydroisoquinoline]		12.9 nM
CN1Cc2cc(-c3cccnn3)ccc2C(c2ccc3sccc3c2)C1 (single isomer, unassigned; (+)) [Example 97, (+)-4-benzo[b]thiophen-5-yl-2-methyl-7-pyridazin-3-yl-1,2,3,4-tetrahydroisoquinoline]		2.2 nM
CN1Cc2cc(-c3cccnn3)ccc2C(c2cc3ccccc3s2)C1 (stereo not drawn) [Example 70]	119 nM	2.2 nM
